Source: PubChem BioAssay AID624171 (National Center for Advancing Translational Sciences (NCATS), 2012)
The campaign covered roughly 410,000 compounds. About 1,200 (0.29%) were called active. This list was built around the results that the source calls inconclusive (neither active nor inactive); the mix of calls is not that of the screen. The call rests on the fitted dose curve; in most records, active means well fitted activation curve with a large enough effect; inconclusive means small, poorly fitted or top-dose-only effect; inactive means flat fitted curve, though single readings scatter. Potencies beside an inconclusive call are fits to weak or partial responses and may not hold up.

Test: qHTS of Nrf2 Activators; further: nearly all actives have a fitted effect of over 65% in size
Details: AREc32 ARE-luciferase reporter (MCF7-derived line), luminescence, 24 h; series mostly up to 46.1 µM
Method in brief: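 Quantitative high-throughput format: AREc32 reporter cells, 1000 per well, received compound by pin transfer and were incubated 24 hr at 37 deg C, 5% CO2, before Steady-Glo luminescence detection.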
Potency means the concentration at half of the fitted maximal effect; tags describe the fitted curve by direction and shape.

Structure (SMILES) | Potency
CCOc1ccc(NC(=O)CN(C)C(=O)c2ccccc2OCc2c(C)noc2C)cc1OCC | inactive
COc1cc(/C=C2\C=CC(=O)O2)cc(OC)c1 | inconclusive: 11.2 µM [activator, partial curve, poor fit]
COc1ccc(-c2cc(C(=O)Oc3cccc(C)c3C)c3ccccc3n2)cc1 | inactive
Cc1cccn2c(=O)c(C=C(C#N)C#N)c(N3CCN(C)CC3)nc12 | inconclusive: 14.1 µM [activator, partial curve, poor fit]
COc1cc(OC)c(NC(=O)CSc2cc(=O)n(C)c3ccc(Cl)cc23)cc1Cl | inactive
CCN(CC)CCN(C(=O)CCS(=O)(=O)c1ccccc1)c1nc2cc(C)cc(C)c2s1 | inconclusive: 35.5 µM [activator, single point]
Cn1c(O)c(N=NC(=O)c2ccco2)c2ccccc21 | inconclusive: 3.16 µM [activator, partial curve, poor fit]
Brc1ccccc1-c1nnc(SCc2nc3ccccc3s2)o1 | inconclusive: 14.1 µM [activator, partial curve, poor fit]
O=S1(=O)C=C(N2CCOCC2)c2ccccc21 | active: 12.6 µM
COc1ccc2c(c1)O[C@H]1c3ccc(O)cc3OC[C@@H]21 | inconclusive: 35.5 µM [activator, single point]
CC(C)C(=O)C1=Cc2cc([N+](=O)[O-])ccc2OC1N1CCOCC1 (stereo not drawn) | inconclusive: 22.4 µM [activator, single point]
CCOC(=O)c1sc2cccc(F)c2c1S(=O)(=O)Nc1ccccc1F | inconclusive: 35.5 µM [activator, single point]
O=C(CCCn1c(=O)[nH]c2ccsc2c1=O)N1CCN(c2ccc(Cl)cc2)CC1 | inactive
CC(C)OC(=O)c1nnc(-c2ccccc2)nc1OC(C)C | inconclusive: 11.2 µM [activator, partial curve, poor fit]
CCOc1ccc(Nc2oc(-c3ccc(COc4ccc(C)cc4)o3)nc2C#N)cc1 | inactive
CCOC(=O)/C(=N\Nc1ccccc1[N+](=O)[O-])c1csc(N)n1 | inconclusive: 3.16 µM [activator, single point]
COc1ccc([N+](=O)[O-])cc1NC(=O)C(C)OC(=O)c1ccccc1C(=O)c1ccc(Cl)cc1 (stereo not drawn) | inconclusive: 3.55 µM [activator, partial curve, poor fit]
Cc1cc(-c2ccccc2)nc(N/N=C/c2ccco2)n1 | inconclusive: 35.5 µM [activator, single point]
O=C(O)c1ccc2nc(C(F)(F)F)[nH]c2c1 | inactive
COc1ccccc1NC(=O)CSC(N)=O | inconclusive: 28.2 µM [activator, single point]
C[C@H](CO)N1C[C@H](C)[C@@H](CN(C)C(=O)Nc2ccc(C(F)(F)F)cc2)Oc2c(NC(=O)Cc3ccccc3)cccc2C1=O | inactive
CC(C)C[C@H]1CNC(=O)C(=O)N1C[C@@H]1CCCN1C[C@H](Cc1ccccc1)N1C[C@H](Cc2ccccc2)N(CC2CCCCC2)C(=O)C1=O | inactive
CC(=O)n1nc(-c2ccccc2)cc1-c1ccccc1 | inconclusive: 3.16 µM [activator, single point]

Structure (SMILES) | Potency
CCN(CC)CCC(=O)N1C/C(=C/c2ccccc2)C(=O)/C(=C\c2ccccc2)C1 | inconclusive: 3.16 µM [activator, single point]
CC1CCN(C(=S)c2cn(Cc3cccc(F)c3)c3ccccc23)CC1 | inactive
O=C(Nc1cccs1)Nc1cccnc1Cl | active: 11.2 µM
COc1ccc(OC)c(C(=O)COC(=O)COc2ccccc2)c1 | inconclusive: 17.8 µM [activator, single point]
O=C(Nc1cc(S(=O)(=O)N2CCOCC2)ccc1N1CCCC1)c1ccccc1C(F)(F)F | inactive
CC(=NNc1nc2ccccc2s1)c1ccncn1 | inconclusive: 15.8 µM [activator, single point]
CCc1oc2ccccc2c1C(=O)CCN1CCCCC1 | inconclusive: 15.8 µM [activator, partial curve, poor fit]
O=C(NC(=O)c1cc([N+](=O)[O-])ccc1Cl)C1=C(N2CCCC2)COC1=O | inconclusive: 14.1 µM [activator, single point]
O=C(NCCc1ccc(Cl)cc1)c1ccc(CS(=O)(=O)Cc2ccc(Cl)cc2)o1 | inactive
O=C(Nc1cc2c(cc1Br)OCCCO2)c1ccccc1 | inconclusive: 14.1 µM [activator, single point]
O=C1NC2(CCCCCC2)C(=O)N1Cc1cccc([N+](=O)[O-])c1 | inactive
CCN1C(=O)[C@H]2[C@@H](c3ccc(C)cc3)N[C@]3(CCCN(Cc4ccc(OC)cc4)C3=O)[C@H]2C1=O | inactive
CC(=O)Nc1cccc(C(=O)/C=C/c2ccco2)c1 | inconclusive: 12.6 µM [activator, partial curve, poor fit]
O=C(Nc1ccc2c3c(cccc13)CC2)c1ccco1 | inconclusive: 12.6 µM [activator, partial curve, poor fit]
Cc1cc(C(=O)N/N=C/c2cccc([N+](=O)[O-])c2)c2ccccc2n1 | inconclusive: 12.6 µM [activator, partial curve, poor fit]
Cn1cc([N+](=O)[O-])c(C(=O)Nc2ccc(Br)cn2)n1 | inconclusive: 31.6 µM [activator, single point]
CCn1nnc(NC(=O)c2ccc([N+](=O)[O-])o2)n1 | inconclusive: 4.47 µM [activator, single point]
Cn1c(=O)c(=O)n(C)c2cc(NC(=O)c3ccccc3Br)ccc21 | inconclusive: 3.55 µM [activator, full curve]
CCOC(=O)c1c(-c2ccccc2)oc2ccc(NS(=O)(=O)c3ccc(C(C)C)cc3)cc12 | inactive
COc1ccc([N+](=O)[O-])cc1NC(=O)C(C)Sc1nc(C)c(C)c(C)n1 (stereo not drawn) | inactive
CCC(C)NC(=O)CSc1nc2cc3c(cc2c(=O)n1CCCC(=O)NCc1ccc2c(c1)OCO2)OCO3 (stereo not drawn) | inactive
CC(=O)Oc1ccc(C(=O)Nc2cccc(NC(=O)c3ccco3)c2)cc1 | inconclusive: 12.6 µM [activator, partial curve, poor fit]
Cc1ccc(CN(Cc2ccco2)C(=O)c2oc3c(C)c(C)ccc3c2C)cc1 | inconclusive: 35.5 µM [activator, single point]

Structure (SMILES) | Potency
COc1cc(/C=C/c2ccc3cccc(O)c3n2)ccc1O | inconclusive: 5.62 µM [activator, single point]
COC(=O)C1CCN(C(=O)c2cc(-c3ccco3)nc3ccccc23)CC1 | inconclusive: 20 µM [activator, single point]
O=C(Nc1nc2c(Cl)ccc(Cl)c2s1)c1ccco1 | inconclusive: 0.562 µM [activator, full curve, poor fit]
O=C(Nc1cc2c(cc1Cl)OCCO2)c1ccco1 | inconclusive: 17.8 µM [activator, partial curve, poor fit]
Cc1[nH]c2ccccc2c1CCNC(=O)c1ccc2c(c1[N+](=O)[O-])C(=O)c1ccccc1C2=O | inconclusive: 22.4 µM [activator, single point]
CC(C)c1ccc(Nc2ncnc3c2c(-c2ccccc2)cn3-c2ccccc2)cc1 | inactive
Cc1ccnc(SCC(=O)c2ccc(Br)s2)n1 | inconclusive: 12.6 µM [activator, single point]
Cc1ccc(-c2nc(=S)c3c(n2Cc2ccco2)CC(C)(C)OC3)cc1 | inconclusive: 22.4 µM [activator, single point]
O=C1C2CCCCC2C(=O)N1c1ccc(S(=O)(=O)Nc2ncccn2)cc1 (stereo not drawn) | inactive
COCCn1c(SCC(=O)c2ccc(Cl)cc2)nnc1C(C)C | inconclusive: 35.5 µM [activator, partial curve, poor fit]
Nc1ccccc1-n1nc2ccc3ccccc3c2n1 | inconclusive: 2.51 µM [activator, full curve, poor fit]
C(=N/n1c2ccccc2c2ccccc21)/c1ccco1 | active: 3.16 µM
COc1ccc(-c2noc(CCC(=O)NCc3ccc(OC)cc3OC)n2)cc1 | inactive
Cc1ccc(S(=O)(=O)CCC(=O)Nc2nnc(-c3cccs3)o2)cc1 | inconclusive: 25.1 µM [activator, single point]
COc1ccc(C(=S)N2CCOCC2)cc1OC(=O)c1cccc([N+](=O)[O-])c1 | inactive
Clc1ccc2c(NNc3ccccc3Cl)ccnc2c1 | inconclusive: 12.6 µM [activator, partial curve, poor fit]
COc1cc(C2CC(c3cccs3)=NN2C(=O)CCl)ccc1OC(F)F (stereo not drawn) | inconclusive: 17.8 µM [activator, single point]
COc1cccc(-c2cc(NC(C)=O)c3ncc(-c4ccc(OC)c(OC)c4)n3c2)c1 | inconclusive: 15.8 µM [activator, single point]
CCCNC(=O)C(=O)N/N=C/c1ccc(OCc2ccccc2)cc1 | inactive
CC(C)(C)N(Cc1ccccc1)C(=O)COC(=O)c1ccc([N+](=O)[O-])o1 | inconclusive: 15.8 µM [activator, single point]
Oc1cccc(NC(=S)N=Nc2c(O)[nH]c3ccc(Br)cc23)c1 | inconclusive: 10 µM [activator, partial curve, poor fit]
CCCCc1nnc(NC(=O)CCS(=O)(=O)c2ccc(C)cc2)s1 | inconclusive: 22.4 µM [activator, single point]
